# Experimental data taken from the supplement of paper PMC4604168 (melanoma cell lines).
# Some of the results follow. Single values are uncertain, as repeats are few or missing.
# Test system: WM1716
# Assay: cell count relative to DMSO control; melanoma cells; higher = more viable cells
# Details: library dose: low library concentration; 72 h; first compound 0.4 µM
# 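Also: cell number obtained by counting DAPI-stained nuclei in high-throughput microscope images with image analysis software, screen run in 1,536-well plates.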
row,Compound,cell count [%]
1,Cn1sc(=O)n(Cc2ccccc2)c1=O + Cc1cc(N2CCOCC2)cc2[nH]c(-c3c(NC[C@@H](O)c4cccc(Cl)c4)cc[nH]c3=O)nc12 [BMS536924] (partner dose 0.2 µM),92.1
2,CCCCCCCCCCCCCCCCCCOP(=O)([O-])OC1CC[N+](C)(C)CC1 [Perifosine] + C[C@@H]1CCN(C(=O)CC#N)C[C@@H]1N(C)c1ncnc2[nH]ccc12 [CP690550] (partner dose 1 µM),105
3,CCCCCCCCCCCCCCCCCCOP(=O)([O-])OC1CC[N+](C)(C)CC1 [Perifosine] + OCCn1cc(-c2cnc3nnn(Cc4ccc5ncccc5c4)c3n2)cn1 [PF04217903] (partner dose 1 µM),76.6
4,CCCCCCCCCCCCCCCCCCOP(=O)([O-])OC1CC[N+](C)(C)CC1 [Perifosine] + O=C(O)c1ccc2c(c1)nc(Nc1cccc(Cl)c1)c1ccncc12 [CX4945] (partner dose 0.4 µM),97.9
5,Cn1sc(=O)n(Cc2ccccc2)c1=O + O=C(CCCCCCC(=O)Nc1ccccc1)NO [vorinostat] (partner dose 0.08 µM),120
6,C[C@@H](N)c1ccc(C(=O)Nc2ccnc3[nH]ccc23)cc1 + CC(C)C[C@H](NC(=O)[C@H](Cc1ccccc1)NC(=O)c1cnccn1)B(O)O [Bortezomib] (partner dose 0.001 µM),41.6
7,CCCCCCCCCCCCCCCCCCOP(=O)([O-])OC1CC[N+](C)(C)CC1 [Perifosine] + O=c1[nH]nc(Sc2ncc([N+](=O)[O-])s2)n1-c1ccc2c(c1)OCCO2 [BI78D3] (partner dose 0.2 µM),109
8,C[C@@H](N)c1ccc(C(=O)Nc2ccnc3[nH]ccc23)cc1 + Cc1cc([N+](=O)[O-])ccc1NS(=O)(=O)c1cc(Cl)ccc1Cl [FH535] (partner dose 1 µM),70.1
9,C[C@@H](N)c1ccc(C(=O)Nc2ccnc3[nH]ccc23)cc1 + c1cc(-c2cnn3cc(-c4ccc(OCCN5CCCCC5)cc4)cnc23)ccn1 [Dorsomorphin] (partner dose 0.4 µM),71.6
10,CCCCCCCCCCCCCCCCCCOP(=O)([O-])OC1CC[N+](C)(C)CC1 [Perifosine] + O=C(/C=C/c1cccnc1)NCCCCC1CCN(C(=O)c2ccccc2)CC1 [FK866] (partner dose 0.01 µM),90.3
11,Cn1sc(=O)n(Cc2ccccc2)c1=O + CN(NC(=O)CC(=O)NN(C)C(=S)c1ccccc1)C(=S)c1ccccc1 [STA4783] (partner dose 0.006 µM),60.8
12,CCCCCCCCCCCCCCCCCCOP(=O)([O-])OC1CC[N+](C)(C)CC1 [Perifosine] + COc1cc2c(Oc3ccc4[nH]c(C)cc4c3F)ncnc2cc1OCCCN1CCCC1 [cediranib] (partner dose 0.4 µM),128
13,C[C@@H](N)c1ccc(C(=O)Nc2ccnc3[nH]ccc23)cc1 + O=C(Nc1ccccc1)c1cc([N+](=O)[O-])ccc1Cl [GW9662] (partner dose 2 µM),75.7
14,CCCCCCCCCCCCCCCCCCOP(=O)([O-])OC1CC[N+](C)(C)CC1 [Perifosine] + COc1ccc(Cl)c(Nc2nc3ccccc3nc2NS(=O)(=O)c2cccc(NC(=O)C(C)(C)N)c2)c1 [XL147] (partner dose 0.8 µM),108
15,CCCCCCCCCCCCCCCCCCOP(=O)([O-])OC1CC[N+](C)(C)CC1 [Perifosine] + COC(=O)c1sccc1S(=O)(=O)Nc1ccc(Nc2ccccc2)cc1OC [GSK0660] (partner dose 1 µM),103
16,Cn1sc(=O)n(Cc2ccccc2)c1=O + NC(=O)Nc1cc(-c2cccc(F)c2)sc1C(=O)N[C@H]1CCCNC1 [AZD7762] (partner dose 0.02 µM),92.1
17,C[C@@H](N)c1ccc(C(=O)Nc2ccnc3[nH]ccc23)cc1 + CS(=O)(=O)CCNCc1ccc(-c2ccc3ncnc(Nc4ccc(OCc5cccc(F)c5)c(Cl)c4)c3c2)o1 [lapatinib] (partner dose 0.8 µM),71.1
18,Cn1sc(=O)n(Cc2ccccc2)c1=O + C[C@]1(c2nc3c(C(N)=O)cccc3[nH]2)CCCN1 [Veliparib] (partner dose 1.4 µM),96.2
19,C[C@@H](N)c1ccc(C(=O)Nc2ccnc3[nH]ccc23)cc1 + COc1ccc(Cl)c(Nc2nc3ccccc3nc2NS(=O)(=O)c2cccc(NC(=O)C(C)(C)N)c2)c1 [XL147] (partner dose 0.8 µM),68.7
20,C[C@@H](N)c1ccc(C(=O)Nc2ccnc3[nH]ccc23)cc1 + Nc1nc(F)nc2c1ncn2[C@@H]1O[C@H](CO)[C@@H](O)[C@@H]1O [fludarabine] (partner dose 0.2 µM),69.5

row,Compound,cell count [%]
1,C[C@@H](N)c1ccc(C(=O)Nc2ccnc3[nH]ccc23)cc1 + Clc1ccc(Nc2nnc(Cc3ccncc3)c3ccccc23)cc1 [vatalanib] (partner dose 2 µM),76.8
2,C[C@@H](N)c1ccc(C(=O)Nc2ccnc3[nH]ccc23)cc1 + O=C(O)C(=O)Nc1sc2c(c1C(=O)O)CCNC2 [TCS401] (partner dose 1.66667 µM),75.7
3,Cn1sc(=O)n(Cc2ccccc2)c1=O + CO[C@H]1C[C@@H]2CC[C@@H](C)[C@@](O)(O2)C(=O)C(=O)N2CCCC[C@H]2C(=O)O[C@H]([C@H](C)C[C@@H]2CC[C@@H](OCCO)[C@H](OC)C2)CC(=O)[C@H](C)/C=C(\C)[C@@H](O)[C@@H](OC)C(=O)[C@H](C)C[C@H](C)/C=C/C=C/C=C/1C [everolimus] (partner dose 0.02 µM),90.8
4,CCCCCCCCCCCCCCCCCCOP(=O)([O-])OC1CC[N+](C)(C)CC1 [Perifosine] + Cc1cc(N2CCOCC2)cc2[nH]c(-c3c(NC[C@@H](O)c4cccc(Cl)c4)cc[nH]c3=O)nc12 [BMS536924] (partner dose 0.2 µM),89.4
5,C[C@@H](N)c1ccc(C(=O)Nc2ccnc3[nH]ccc23)cc1 + CC(=O)O[C@@]12CO[C@@H]1C[C@H](O)[C@@]1(C)C(=O)[C@H](O)C3=C(C)[C@@H](OC(=O)[C@H](O)[C@@H](NC(=O)OC(C)(C)C)c4ccccc4)C[C@@](O)([C@@H](OC(=O)c4ccccc4)[C@H]21)C3(C)C [Docetaxel] (partner dose 0.0001 µM),33.4
6,Cn1sc(=O)n(Cc2ccccc2)c1=O + c1cc(-c2cnn3cc(-c4ccc(OCCN5CCCCC5)cc4)cnc23)ccn1 [Dorsomorphin] (partner dose 0.4 µM),97.4
7,Cn1sc(=O)n(Cc2ccccc2)c1=O + COCC[n+]1c2c(n(Cc3cnccn3)c1C)C(=O)c1ccccc1C2=O [YM155] (partner dose 0.0004 µM),95.3
8,Cn1sc(=O)n(Cc2ccccc2)c1=O + Nc1nc(F)nc2c1ncn2[C@@H]1O[C@H](CO)[C@@H](O)[C@@H]1O [fludarabine] (partner dose 0.2 µM),98.2
9,CCCCCCCCCCCCCCCCCCOP(=O)([O-])OC1CC[N+](C)(C)CC1 [Perifosine] + CC(=O)O[C@@]12CO[C@@H]1C[C@H](O)[C@@]1(C)C(=O)[C@H](O)C3=C(C)[C@@H](OC(=O)[C@H](O)[C@@H](NC(=O)OC(C)(C)C)c4ccccc4)C[C@@](O)([C@@H](OC(=O)c4ccccc4)[C@H]21)C3(C)C [Docetaxel] (partner dose 0.0001 µM),38.8
10,CCCCCCCCCCCCCCCCCCOP(=O)([O-])OC1CC[N+](C)(C)CC1 [Perifosine] + C=C(c1ccc(C(=O)O)cc1)c1cc2c(cc1C)C(C)(C)CCC2(C)C [Bexarotene] (partner dose 2 µM),85.6
11,Cn1sc(=O)n(Cc2ccccc2)c1=O + CCN(CC)CCCCNc1ncc2cc(-c3cc(OC)cc(OC)c3)c(NC(=O)NC(C)(C)C)nc2n1 [PD173074] (partner dose 0.1 µM),98.9
12,C[C@@H](N)c1ccc(C(=O)Nc2ccnc3[nH]ccc23)cc1 + C[C@]1(c2nc3c(C(N)=O)cccc3[nH]2)CCCN1 [Veliparib] (partner dose 1.4 µM),60.7
13,CCCCCCCCCCCCCCCCCCOP(=O)([O-])OC1CC[N+](C)(C)CC1 [Perifosine] + CCCCCCCCc1ccc(CCC(N)(CO)CO)cc1 [fingolimod] (partner dose 2 µM),85.8
14,C[C@@H](N)c1ccc(C(=O)Nc2ccnc3[nH]ccc23)cc1 + CN(c1ncccc1CNc1nc(Nc2ccc3c(c2)CC(=O)N3)ncc1C(F)(F)F)S(C)(=O)=O [PF562271] (partner dose 0.08 µM),48.5
15,C[C@@H](N)c1ccc(C(=O)Nc2ccnc3[nH]ccc23)cc1 + COc1cc(Nc2ncc(F)c(Nc3ccc4c(n3)NC(=O)C(C)(C)O4)n2)cc(OC)c1OC [Tamatinib] (partner dose 0.4 µM),64.3
16,C[C@@H](N)c1ccc(C(=O)Nc2ccnc3[nH]ccc23)cc1 + Cc1ccc(NC(=O)c2cccc(N(C)C)c2)cc1NC(=O)c1ccc(O)cc1 [ZM336372] (partner dose 2 µM),71.4
17,CCCCCCCCCCCCCCCCCCOP(=O)([O-])OC1CC[N+](C)(C)CC1 [Perifosine] + Cc1cn(-c2cc(NC(=O)c3ccc(C)c(Nc4nccc(-c5cccnc5)n4)c3)cc(C(F)(F)F)c2)cn1 [nilotinib] (partner dose 0.2 µM),116
18,C[C@@H](N)c1ccc(C(=O)Nc2ccnc3[nH]ccc23)cc1 + Cn1c(=O)n(-c2ccc(C(C)(C)C#N)cc2)c2c3cc(-c4cnc5ccccc5c4)ccc3ncc21 [NVP-BEZ235] (partner dose 0.004 µM),64.3
19,Cn1sc(=O)n(Cc2ccccc2)c1=O + CCCCCCCCc1ccc(CCC(N)(CO)CO)cc1 [fingolimod] (partner dose 2 µM),72.3
